In PubChem BioAssay AID2101 (National Center for Advancing Translational Sciences (NCATS), 2009):
The campaign covered roughly 330,000 compounds. About 300 (0.091%) were called active. Inconclusive means that the source gave no clear call. Such entries were picked first, then a sample of the others. The call rests on the fitted dose curve; in most records, active means well fitted inhibition curve with a large enough effect; inconclusive means small, poorly fitted or top-dose-only effect, or effect the other way, or another doubt; inactive means no such curve, though single readings can be large or run the other way. Potencies of inconclusive entries are left out as doubtful fits.

Target: Lysosomal acid glucosylceramidase (Homo sapiens) (UniProt P04062)
Experiment: qHTS Assay for Inhibitors and Activators of N370S glucocerebrosidase as a Potential Chaperone Treatment of Gaucher Disease
Conditions: N370S GC spleen homogenate, 4MU-glucoside fluorescence; series mostly up to 59.4 µM
Potency means the concentration at half of the fitted maximal effect.

Question: How did the Potency turn out when `CC[C@@H](C)[C@H]1O[C@]2(CC[C@@H]1C)C[C@@H]1C[C@@H](C/C=C(\C)[C@@H](O[C@H]3C[C@H](OC)[C@@H](O[C@H]4C[C@H](OC)[C@@H](O)[C@H](C)O4)[C@H](C)O3)[C@@H](C)/C=C/C=C3\CO[C@@H]4[C@H](O)C(C)=C[C@@H](C(=O)O1)[C@]34O)O2` was run?
Answer: inconclusive [inhibitor, partial curve]

Question: Which Potency does the source give for `N#Cc1c2n(c3c(=O)n(Cc4ccc(Cl)cc4)cnc13)CCCCC2` here?
Answer: inconclusive [activator, partial curve]

Question: For `Clc1ccc2ncc(-c3nnnn3-c3ccccc3)c(-c3ccccc3)c2c1`, which Potency is on record?
Answer: inconclusive [activator, partial curve]

Question: Which Potency does the source give for `NS(=O)(=O)c1cccc(NC(=O)C(Cc2ccccc2)NC(=O)c2ccccc2)c1` (stereo not drawn) here?
Answer: inconclusive [inhibitor, partial curve]

Question: For `CN(C)C(CNC(=O)c1ccco1)c1cccs1` (stereo not drawn), which Potency is on record?
Answer: inactive

Question: `CN(Cc1c(F)cccc1Cl)C(=O)c1ccc(NS(=O)(=O)c2ccc3[nH]c(=O)[nH]c3c2)cc1` was tested. Which Potency did it give?
Answer: inconclusive [inhibitor, full curve]

Question: Which Potency does the source give for `CCOC(=O)c1nc2nc(C)c(Cl)c(=O)n2[nH]1` here?
Answer: inconclusive [inhibitor, full curve, poor fit]

Question: With `CCCCn1c(=O)[nH]c(=O)c2c1nc(-c1ccccc1F)n2Cc1ccccc1OC` as the molecule, how does the Potency read?
Answer: inconclusive [activator, single point]

Question: For `COc1ccc2cc3cc(C(=O)NCc4cccnc4)oc3nc2c1`, which Potency is on record?
Answer: inconclusive [activator, single point]

Question: Which Potency does the source give for `Cc1cc(O)ccc1Nc1nc(-c2sc(N)nc2C)cs1` here?
Answer: inconclusive [inhibitor, single point]

Question: For `CCOc1cc(N2CCOCC2)c(OCC)cc1NC(=O)COC(=O)[C@@H]1CCCN1S(=O)(=O)c1ccccc1F`, which Potency is on record?
Answer: inconclusive [activator, partial curve]

Question: How did the Potency turn out when `COc1ccc(-c2cc(-c3n[nH]c(=S)n3-c3cccc4ccccc34)[nH]n2)cc1` was run?
Answer: inconclusive [activator, partial curve]

Question: `N=C1C=CC(=C(c2ccc(N)cc2)c2ccc(N)cc2)C=C1` was tested. Which Potency did it give?
Answer: active: 3.55 µM

Question: `CCOC(=O)c1c(NC(=O)COC(=O)/C=C/c2ccco2)sc2c1CC(C)(C)NC2(C)C` was tested. Which Potency did it give?
Answer: inconclusive [activator, single point]

Question: `O=c1c(O)c(-c2ccc(O)cc2)oc2ccc(O)cc12` was tested. Which Potency did it give?
Answer: inconclusive [inhibitor, partial curve]

Question: With `C=C(C)COc1ccc(-c2n[nH]c(C)c2-c2ccccc2OC)c(O)c1` as the molecule, how does the Potency read?
Answer: inconclusive [activator, partial curve]

Question: With `Cc1nc(N/N=C/c2ccc(O)cc2O)cc(N2CCOCC2)n1` as the molecule, how does the Potency read?
Answer: inconclusive [inhibitor, single point]

Question: `O=C(NCc1ccccn1)C1CCCN(S(=O)(=O)c2ccc(Br)cc2)C1` (stereo not drawn) was tested. Which Potency did it give?
Answer: inconclusive [inhibitor, partial curve]

Question: With `CC(C)(CNC(=O)c1cccc(S(=O)(=O)Nc2ccc(Br)cc2)c1)N1CCOCC1` as the molecule, how does the Potency read?
Answer: inconclusive [inhibitor, partial curve]

Question: Which Potency does the source give for `Cc1cc(Cl)c(Cl)cc1S(=O)(=O)NCCCn1ccnc1` here?
Answer: inconclusive [inhibitor, single point]

Question: `CCOc1ccc(Nc2nc(N)c([N+](=O)[O-])c(N3CCN(CC)CC3)n2)cc1` was tested. Which Potency did it give?
Answer: inconclusive [inhibitor, partial curve]

Question: For `CN(C)/C=C/c1c([N+](=O)[O-])c2ccc(O)cc2n1-c1ccccc1`, which Potency is on record?
Answer: inactive

Question: `O=C(O)c1ccccc1NS(=O)(=O)c1ccc2ccccc2c1` was tested. Which Potency did it give?
Answer: inconclusive [activator, partial curve]

Question: `COc1ccc(Cl)cc1NC(=O)CN(C)C(=O)c1cc2c(s1)CCC(C)C2` (stereo not drawn) was tested. Which Potency did it give?
Answer: inconclusive [activator, partial curve]

Question: With `CCOc1ccc(N(CC(=O)Nc2ccccc2C)S(=O)(=O)c2c(C)[nH]c(=O)[nH]c2=O)cc1` as the molecule, how does the Potency read?
Answer: inconclusive [inhibitor, partial curve]

Question: Which Potency does the source give for `COc1ccc(N2C(=O)CS/C2=N\C(=S)Nc2ccccc2)cc1` here?
Answer: inactive

Question: For `O=c1c(Cl)c(NCCCO)cnn1-c1nc2ccccc2[nH]1`, which Potency is on record?
Answer: inactive

Question: Which Potency does the source give for `CCCS(=O)(=O)c1nc(S(=O)(=O)c2ccc(C)cc2)c(N2CCC(C)CC2)s1` here?
Answer: inconclusive [activator, single point]

Question: How did the Potency turn out when `CCCc1cc(=O)[nH]c(SCC(=O)Nc2sc3c(c2C#N)CCC(C)C3)n1` (stereo not drawn) was run?
Answer: inconclusive [activator, partial curve]

Question: `COc1cc2c(c(OC)c1OC)-c1c(cc(OC)c(OC)c1OC)CC(C)C(C)C2` (stereo not drawn) was tested. Which Potency did it give?
Answer: inactive

Question: For `Cc1cc(C)cc(NS(=O)(=O)c2cc3[nH]c(=O)c(=O)[nH]c3cc2C)c1`, which Potency is on record?
Answer: inconclusive [inhibitor, partial curve]

Question: `C/C(=N\NC(=O)c1cc2c(s1)CCC(C)C2)c1cccnc1` (stereo not drawn) was tested. Which Potency did it give?
Answer: inconclusive [activator, partial curve, poor fit]

Question: How did the Potency turn out when `CC1CCc2c(N3CCC(O)CC3)c(F)cc3c(=O)c(C(=O)O)cn1c23` (stereo not drawn) was run?
Answer: inconclusive [activator, single point]

Question: Which Potency does the source give for `O=S(=O)(c1ccccc1F)N(Cc1ccco1)Cc1nnc(-c2ccccc2Br)o1` here?
Answer: inconclusive [activator, single point]

Question: Which Potency does the source give for `CCc1cc(=O)oc2c(CNCc3ccc(OC)cc3OC)c(O)c(Cl)cc12` here?
Answer: inconclusive [activator, partial curve]

Question: With `COc1ccc(CC(=O)O/N=C(\N)c2ccc(OC)cc2)cc1` as the molecule, how does the Potency read?
Answer: inactive

Question: For `O=C(NCc1nnc2c3ccccc3c(-c3ccccc3)nn12)c1ccc(Cl)cc1`, which Potency is on record?
Answer: inconclusive [activator, partial curve]

Question: For `COc1ccccc1[C@@H]1C(c2cccc(C)c2)=NN(c2ccccc2)[C@H]1C(=O)N1CCOC1=O`, which Potency is on record?
Answer: inconclusive [activator, partial curve]
